# Measured values published in the supplement of paper PMC9446081.
# Out of some 39,000 compounds screened, about 220 (0.56%) showed activity. The list shows a part of the results.
# Tested on: Escherichia coli K-12 BW25113
# Test: relative growth (OD600 normalised to plate interquartile mean) (fraction); higher = less growth inhibition, active = 0.2 or less
# Settings: 50 µM; LB; incubation time: overnight (16-24 h)
# 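Further: static incubation at 37 °C against the wild-type strain, values averaged over two biological replicates.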
row,SMILES,relative growth
1,O=C(N/N=C/[C@H](O)[C@@H](O)[C@H](O)CO)c1ccccn1,inactive: 0.991
2,COc1ccc(S(=O)(=O)Nc2cccc3c2O[C@@H](CN(C)S(=O)(=O)c2cn(C)cn2)[C@@H](C)CN([C@H](C)CO)C3=O)cc1,inactive: 1
3,C[C@@H]1O[C@H](Oc2cc(O)c3c(=O)c(O[C@H]4O[C@H](CO)[C@H](O)[C@H](O)[C@@H]4O[C@@H]4O[C@H](C)[C@@H](O)[C@H](O)[C@@H]4O)c(-c4ccc(O)c(O)c4)oc3c2)[C@@H](O)[C@H](O)[C@@H]1O,inactive: 1.04
4,C[C@H]1CN([C@@H](C)CO)C(=O)c2c(c3ccccc3n2C)-c2ccccc2CO[C@@H]1CN(C)Cc1cccc(F)c1,inactive: 0.962
5,COc1ccc(OCCN2CCC(C(=O)N[C@@H](c3ccc(F)cc3)c3ccc4ccccc4n3)CC2)cc1,inactive: 0.985
6,CC(C)NC(=O)Nc1cccc2c1O[C@@H](CN(C)C(=O)Nc1ccc3c(c1)OCO3)[C@H](C)CN([C@H](C)CO)C2=O,inactive: 0.993
7,COc1ccc(C#Cc2ccc3c(c2)O[C@H](CN(C)C(=O)CN2CCOCC2)[C@H](C)CN([C@H](C)CO)S3(=O)=O)cc1,inactive: 1.01
8,C[C@@H]1CN([C@H](C)CO)C(=O)c2cccc(NC(=O)Nc3cccc4ccccc34)c2O[C@@H]1CN(C)C(=O)Nc1ccccc1,inactive: 1.02
9,C[C@H](CO)N1C[C@H](C)[C@@H](CN(C)C(=O)Nc2ccc3c(c2)OCO3)Oc2ccc(NS(C)(=O)=O)cc2CC1=O,inactive: 0.935
10,COC(=O)CNC(=O)c1ccc(F)cc1,inactive: 0.997
11,C[C@H](CO)N1C[C@H](C)[C@@H](CN(C)C(=O)C2CC2)Oc2cc(-c3ccc(C(=O)N(C)C)cc3)ccc2S1(=O)=O,inactive: 0.989
12,C[C@@H]1CCCCO[C@@H](CN(C)Cc2ccc(C(=O)O)cc2)[C@H](C)CN([C@@H](C)CO)C(=O)c2cc(NC(=O)Nc3cccc4ccccc34)ccc2O1,inactive: 0.984
13,Cc1noc(C)c1S(=O)(=O)Nc1ccc2c(c1)CC(=O)N([C@@H](C)CO)C[C@@H](C)[C@@H](CN(C)C(=O)Nc1ccc3c(c1)OCO3)O2,inactive: 0.981
14,CN(C)C/C=C/C(=O)Nc1ccc(C(=O)Nc2cccc(Nc3ncc(Cl)c(-c4c[nH]c5ccccc45)n3)c2)cc1,inactive: 1.02
15,CC(C)NC(=O)N(C)C[C@@H]1Oc2ccc(NS(=O)(=O)c3cn(C)cn3)cc2C(=O)N([C@H](C)CO)C[C@@H]1C,inactive: 0.967
16,C=CCC[C@H](Cc1ccc(F)cc1)C(=O)OC[C@H](Cc1c[nH]c2ccccc12)NC(=O)[C@H](CC=C)CC(=O)N(CCO)Cc1ccccc1,inactive: 1.09
17,Brc1ccc(-c2cc3n(c2)CCc2ccccc2-3)cc1,inactive: 1.04
18,O=C(NCC[C@H]1CC[C@@H](NS(=O)(=O)c2cccc(F)c2)[C@@H](CO)O1)C1CC1,inactive: 0.996
19,O=c1[nH]nc(Br)c(=O)[nH]1,inactive: 0.983
20,OC[C@H]1O[C@@H](n2cnc3c(NC4CCCC4)ncnc32)[C@H](O)[C@@H]1O,inactive: 0.996

row,SMILES,relative growth
1,COc1ccc(-c2cnc3c(c2)C(=O)N([C@H](C)CO)C[C@@H](C)[C@@H](CN(C)C(=O)C2CCOCC2)O3)cc1,inactive: 0.984
2,C[N+](C)(C)CCO.Cn1c(=O)c2[n-]cnc2n(C)c1=O,inactive: 1.06
3,CC[C@H]1OC(=O)[C@H](C)[C@@H](O[C@H]2C[C@@](C)(OC)[C@@H](O)[C@H](C)O2)[C@H](C)[C@@H](O[C@@H]2O[C@H](C)C[C@H](N(C)C)[C@H]2O)[C@](C)(O)C[C@@H](C)C(=O)[C@H](C)[C@@H](O)[C@]1(C)O,active: 0.0484
4,C[C@@H]1CCCCO[C@@H](CN(C)Cc2ccc(C(=O)Nc3ccccc3N)cc2)[C@@H](C)CN([C@@H](C)CO)C(=O)c2cc(N(C)C)ccc2O1,inactive: 0.994
5,C[C@H]1CN([C@@H](C)CO)C(=O)Cc2cc(NC(=O)NC3CCCCC3)ccc2O[C@H]1CN(C)S(C)(=O)=O,inactive: 1
6,Cl.NC(Cc1ccc(O)cc1)C(=O)O (centres undefined),inactive: 0.85
7,Cl.NCCS,inactive: 1.04
8,C[C@@H]1CCCCO[C@@H](CN(C)CC2CCCCC2)[C@H](C)CN([C@@H](C)CO)C(=O)c2cc(NS(=O)(=O)c3ccccc3)ccc2O1,inactive: 1.01
9,C[C@@H]1CN([C@H](C)CO)C(=O)c2cc(NC(=O)CCCCCC(=O)Nc3ccccc3N)ccc2O[C@H]1CN(C)CC1CCCCC1,inactive: 0.965
10,Cc1noc(C)c1S(=O)(=O)N(C)C[C@H]1Oc2ccc(NC(=O)Cc3ccccc3)cc2CC(=O)N([C@H](C)CO)C[C@@H]1C,inactive: 1.03
11,C[C@H](CO)N1C[C@H](C)[C@H](CN(C)C(=O)Nc2ccc(C(C)(C)C)cc2)OCc2cnnn2CCCC1=O,inactive: 1
12,Brc1ccc2nc(N3CCCN(Cc4ccccc4)CC3)nc(NC3CCN(Cc4ccccc4)CC3)c2c1,inactive: 0.25
13,O=C(CN1CCOCC1)N[C@@H]1CC[C@H](CCn2cc(C3CC3)nn2)O[C@@H]1CO,inactive: 0.953
14,COc1ccc(S(=O)(=O)N(C)C[C@H]2OCCCC[C@H](C)Oc3ccc(NC(=O)Nc4c(C)noc4C)cc3C(=O)N([C@H](C)CO)C[C@@H]2C)cc1,inactive: 0.977
15,C[C@@H]1CN([C@@H](C)CO)C(=O)Cc2cc(NC(=O)Nc3cccc4ccccc34)ccc2O[C@@H]1CN(C)C(=O)Nc1ccc2c(c1)OCO2,inactive: 1.01
16,CN(C=O)CP(=O)(O)CN1CCCCC1,inactive: 1.03
17,COc1ccc(C#Cc2cnc3c(c2)C(=O)N([C@@H](C)CO)C[C@H](C)[C@@H](CN(C)CC2CCOCC2)O3)cc1,inactive: 1.02
18,C[C@H](CO)N1C[C@H](C)[C@@H](CN(C)C(=O)c2ccccc2)OCCCC[C@H](C)Oc2ccc(NC(=O)Nc3ccccc3)cc2C1=O,inactive: 1.01
19,Cc1ccc(S(=O)(=O)N(C)C[C@@H]2Oc3ccc(NS(C)(=O)=O)cc3CC(=O)N([C@@H](C)CO)C[C@H]2C)cc1,inactive: 1.02
20,NCCCC[C@H](NC(=O)[C@@H]1CCCN1C(=O)[C@@H]1CSSC[C@H](N)C(=O)N[C@@H](Cc2ccc(O)cc2)C(=O)N[C@@H](Cc2ccccc2)C(=O)N[C@@H](CCC(N)=O)C(=O)N[C@@H](CC(N)=O)C(=O)N1)C(=O)NCC(N)=O,inactive: 0.996

row,SMILES,relative growth
1,C[C@@H]1CN([C@H](C)CO)C(=O)Cc2cc(NC(=O)Cn3cnnn3)ccc2O[C@@H]1CN(C)S(C)(=O)=O,inactive: 0.978
2,C[C@@H]1CCCCO[C@H](CN(C)C(=O)NC2CCCCC2)[C@H](C)CN([C@@H](C)CO)C(=O)c2cc(NC(=O)c3ccncc3)ccc2O1,inactive: 0.95
3,COc1ccc(COC[C@]23NC(=S)N[C@H](c4ccccc4O2)[C@H]3COC(=O)NCCCCCC(=O)NO)cc1,inactive: 0.994
4,CC(=O)Oc1cccc(O)c1,inactive: 1.03
5,O=c1[nH][nH]c(=O)c(Cl)c1Cl,inactive: 0.999
6,C[C@@H]1CCCCO[C@@H](CN(C)C(=O)Nc2cccc3ccccc23)[C@H](C)CN([C@@H](C)CO)C(=O)c2cc(NC(=O)Nc3cccc4ccccc34)ccc2O1,inactive: 0.875
7,COc1ccc(S(=O)(=O)N(C)C[C@@H]2OCCCC[C@@H](C)Oc3ccc(NC(=O)Nc4c(C)noc4C)cc3C(=O)N([C@@H](C)CO)C[C@@H]2C)cc1,inactive: 1.02
8,Cc1noc(C)c1NC(=O)N(C)C[C@H]1OCCCC[C@H](C)Oc2ccc(NC(=O)Nc3ccc(C(F)(F)F)cc3)cc2C(=O)N([C@H](C)CO)C[C@@H]1C,inactive: 1.03
9,CC(=O)N/C=C1\C(=O)N(C)C(=O)C(C#N)=C1C,inactive: 1.04
10,C[C@@H]1CN([C@H](C)CO)C(=O)c2cc(Br)cnc2O[C@H]1CN(C)C(=O)Nc1ccc2c(c1)OCO2,inactive: 1.01
11,C[C@@H]1CN([C@@H](C)CO)C(=O)Cc2cc(NC(=O)Nc3cccc4ccccc34)ccc2O[C@H]1CN(C)C(=O)Nc1cccc2ccccc12,inactive: 0.983
12,C[C@@H]1CN([C@@H](C)CO)C(=O)c2cc(NC(=O)c3ccccc3)ccc2O[C@@H](C)CCCCO[C@H]1CN(C)C(=O)Nc1ccccc1,inactive: 1.02
13,C[C@@H]1CN([C@H](C)CO)C(=O)c2cccc(NS(=O)(=O)c3ccc(F)cc3)c2O[C@@H]1CN(C)S(=O)(=O)c1cn(C)cn1,inactive: 0.99
14,C[C@@H]1CCCCO[C@H](CN(C)Cc2ccc(C(F)(F)F)cc2)[C@H](C)CN([C@H](C)CO)C(=O)c2cc(NS(=O)(=O)c3ccccc3)ccc2O1,inactive: 1.03
15,Cc1noc(C)c1NC(=O)Nc1ccc2c(c1)C(=O)N([C@H](C)CO)C[C@H](C)[C@@H](CN(C)Cc1ccncc1)OCCCC[C@@H](C)O2,inactive: 0.989
16,CCO[C@@H]1OC(C(=O)N2CCN(Cc3ccccc3)CC2)=C[C@H](c2csc3ccccc23)[C@H]1CCCOC(=O)NCCCCCC(=O)NO,inactive: 0.97
17,Cc1noc(C)c1NC(=O)Nc1ccc2c(c1)C(=O)N([C@@H](C)CO)C[C@@H](C)[C@@H](CN(C)CC1CCCCC1)OCCCC[C@@H](C)O2,inactive: 1.01
18,COc1ccc(S(=O)(=O)N(C)C[C@@H]2OCCCC[C@@H](C)Oc3ccc(NC(=O)CCC(F)(F)F)cc3C(=O)N([C@H](C)CO)C[C@@H]2C)cc1,inactive: 1.01
19,C[C@@H]1CN([C@@H](C)CO)C(=O)Cc2cc(NC(=O)C3CCCCC3)ccc2O[C@@H]1CN(C)C(=O)Nc1ccc(C(F)(F)F)cc1,inactive: 0.971
